According to the supplement of paper PMC11417369:
Some of the results follow.

The sequences below were run on PfHDP1 homeodomain (GST-tagged) (assay: gcPBM binding intensity (ln(normalized median fluorescence intensity)); higher = stronger DNA binding).
In short: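 In this array assay, P. falciparum DNA-binding domains with a GST tag, expressed in E. coli, were applied for 1 h to primer-extended double-stranded 36-bp intergenic genomic probes and negative controls on an Agilent 4 × 180k array. Bound protein was visualised with Alexa488 anti-GST antibody at 488 nm. Binding intensity is the highest Masliner-normalised natural-log median intensity across replicate spots of either probe orientation.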

Row | Sequence | gcPBM binding intensity (ln)
1 | AAAAAAAATAATAATACACACAATATGATATGTACA [CACACA_site850] | 6.38
2 | GAATATGAATATTTGCGTACTTATATAACTGTTCTA [XGTACX_site883] | 6.59
3 | ATACACATTCGAAATAACAAAAAAATACATACACAT [GTGCAC_negctrl_site628] | 6.99
4 | ATGATTATTTTAAAAAGTACTAATTATTATTTTTTT [XGTACX_site7242] | 6.29
5 | TACTATAAGATATATACACACAAGAAATACAAAACG [CACACA_site6764] | 7.47
6 | TATATATAAATATATGTGCACTTTTTATATTTATAT | 9.06
7 | ATATGGAATAATACGCGTACACACATATATATATTA [XGTACX_site307] | 6.76
8 | TCTTGATTATATAGTACTACACATTATAAAAAAATT [XGTACX_site2465] | 6.69
9 | TTTATATCATTACAAGTGCATATCATCATAAATTCT [GTGCAC_site9878] | 7.82
10 | TTCATATATTTAGGACGTACTTTTATATTACTATAT [XGTACX_site6456] | 6.62
11 | TTTTAAAAATTAAGTGCATGTCCTTATAAAAAAAAA [TGCATGCA_site845] | 7.17
12 | AAAAAATAGAATATAAAAATAAAGGAATTAAATTAA [XGTACX_negctrl_site420] | 6.2
13 | AATTTTTTTTTAATCATGCACACTGTTAAAAGAATA [CACACA_site1240] | 7.68
14 | ATATATTGGAGCACAACACACACAAGTATATATATG [CACACA_site8435] | 8.11
15 | AAAAAAAAAAAAAACACACAGAACAATATATAAATA [CACACA_site982] | 6.46
16 | AAAAAAAAATACAAAATAGCAATAAATACACAAACG [GTGCAC_negctrl_site707] | 7.12
17 | ACTACATAATACTATTCACACATTTTTTTTTTTTTT [CACACA_site5794] | 6.71
18 | AAAAAAAAAAAAAAAACATGCACAAATTATAAGTGA [TGCATGCA_site378] | 8.34
19 | ATAATACCCAAGCACACACACACACCGATATATATA [CACACA_site8344] | 7.06
20 | AATTTATAAGAATAAAGTACTAAAGATACAACTTTA [XGTACX_site7153] | 6
21 | TGTTATTATAACATTTTTTTCAAAATAGCTTTAGAA [CACACA_negctrl_site266] | 6.12
22 | ATTAAAGGAAGCAAAACATGCAACAGCAATATTGCA [TGCATGCA_site452] | 6.57

Row | Sequence | gcPBM binding intensity (ln)
23 | AATTATATAACAAATTGTACGAATGAAAATATTATT [XGTACX_site4237] | 6.79
24 | TAAAAATAGGAATACGCACACGATGATTAATTTATA [CACACA_site1835] | 6.41
25 | ATTTTTTTTTTTTTTTTGGGGGGGTATACTTTTAAA [CACACA_negctrl_site1020] | 10.2
26 | TTCCTTTTTTTTTATTGTACAAAAATATCAAAAAGG [XGTACX_site8505] | 6.35
27 | TTTTTAATTTTATATACACACATAAAATATATGAAG [CACACA_site3145] | 6.64
28 | TATAATGAGGATGATAGTACGTATTAGTATAAAAAA [XGTACX_site6623] | 6.75
29 | TTTATATATATTTATACACACAAACATAATACTACT [CACACA_site5161] | 6.86
30 | TATATACACATATATACACACACATATATATATATA [CACACA_site9127] | 9.23
31 | ATATATCTACTGTGTTGTACTGTTAATATTTGAATA [XGTACX_site1931] | 6.58
32 | ATATAAGTGTATCTAACACACAAATATGTAAAAATG [CACACA_site7006] | 6.39
33 | ATATTTTTTGCTATTACACACAAGGGATTATTATTT [CACACA_site7776] | 7.18
34 | AAGAAAAAAAATATATATGTATATATTATTTTAACA [TGCATGCA_negctrl_site534] | 6.15
35 | ATGTTAATAACTTGTGGTACTGTTATAATTTAGTAA [XGTACX_site2114] | 6.14
36 | TAATAATAGTCTAATACATGCATCGATAACGGAACT [TGCATGCA_site98] | 6.9
37 | ATATAAATTATTTACACACAAACATTTATACTTTTA [CACACA_site3448] | 6.77
38 | TTTTGTTACGGCAAGGAAGTTAAGCATAAATGAATG [GTGCAC_negctrl_site173] | 6.82
39 | CAGGCGTGAAATATACGTACACACATTATTTATATT [XGTACX_site5337] | 6.47
40 | AAAAAAAAAAAATATACACACACATATATATATATA [CACACA_site9123] | 9.17
41 | AACAACAATTTCGTCATACACACATTCAGAATATAT [CACACA_site2371] | 6.72
42 | TATTAAAAAAATGTATGTACATATATAAATTTTTTT [XGTACX_site1094] | 6.15
43 | AATGATCATAAATACACACACACAAAAAAAAAAAAA [CACACA_site6072] | 6.39
44 | AAAGTAAAAGAAAGCACACACACATGTATATATGTA [CACACA_site3857] | 6.45
